Measurements reported in PubChem BioAssay AID1745845 (National Center for Advancing Translational Sciences (NCATS), 2022).
Values joined by “and” are separate entries in the source; they are usually repeats but may differ in a detail not shown here. Equal entries are not always repeated. Among all 360,000 compounds or so, about 2,600 (0.72%) were called active. Inconclusive means that the source gave no clear call. Such entries were picked first, then a sample of the others. Calls come from the whole dose curve; as a rule, active = well fitted inhibition curve with a large enough effect; inconclusive = small, poorly fitted or top-dose-only effect; inactive = no such curve, though single readings can be large or run the other way. Potencies beside an inconclusive call are fits to weak or partial responses and may not hold up.

Assay: Primary qHTS for Inhibitors of ATXN expression; note: nearly all actives have a fitted effect of over 55% in size
Settings: HEK-293 ATXN2-luciferase reporter, luminescence, 24 h; activity change, negative = inhibition: at 57 µM (top of the series)
Summary of the method: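 ATXN2-luciferase reporter cells (luciferase flanked by upstream and downstream ATXN2 gene portions) were treated 24 h at 37 °C with compounds at up to 57 uM. SteadyGlo luminescence gave expression; GF-AFC fluorescence gave viability.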
% is set by controls: 0 for no effect and ±100 for the full control effect; potency is the fitted concentration of half-maximal effect; tags give direction and shape of the fitted curve.

Row | SMILES | Potency | activity change, negative = inhibition
1 | CCn1cc(CN2CCCC(C(=O)c3ccc(-c4ccccc4)c(F)c3)C2)cn1 (stereo not given) | inconclusive: 14.1 µM [inhibitor, partial curve, poor fit] | 
2 | C[C@H](CO)N1C[C@H](C)[C@@H](CN(C)Cc2ccc(-c3ccccc3)cc2)Oc2c(NC(=O)Nc3ccc4c(c3)OCO4)cccc2C1=O | inconclusive: 17.8 µM [inhibitor, partial curve, poor fit] | 
3 | Cc1ccccc1S(=O)(=O)N(C)C[C@@H]1OCc2ccccc2-c2c(n(C)c3ccccc23)C(=O)N([C@H](C)CO)C[C@@H]1C | inconclusive: 39.8 µM [inhibitor, single point] | 
4 | COc1cccc(CN(C)C(=O)c2cc(COc3ccc(-n4cncn4)cc3)on2)c1 | inconclusive: 17.8 µM [inhibitor, partial curve, poor fit] | 
5 | Brc1ccc2[nH]c3c(N4CCc5ccccc5C4)ncnc3c2c1 | inconclusive: 7.94 µM [inhibitor, partial curve] | 
6 | Cc1cc(Cl)ccc1OC(C)C(=O)Nc1ccc([N+](=O)[O-])cn1 (stereo not given) |  | inactive: -8.18%
7 | COc1cccc(N2CCN(C(=O)CN3C(=O)NC(C)(c4ccc5ccccc5c4)C3=O)CC2)c1 (stereo not given) | inconclusive: 35.5 µM [inhibitor, single point] | 
8 | O=C(/C=C/c1cccc(Cl)c1)c1nc2ccccc2[nH]1 | inconclusive: 22.4 µM [inhibitor, single point] | 
9 | O=C(c1cccc(C(=O)N2CCN(c3ccc(F)cc3)CC2)c1)N1CCN(c2ccc(F)cc2)CC1 | inconclusive: 22.4 µM [inhibitor, single point] | 
10 | CC1CCN(CC(O)COc2ccc(-c3ccccc3)cc2)CC1 (stereo not given) | inconclusive: 0.844 µM [inhibitor, partial curve, poor fit] | 
11 | COc1ccc(CNC(=S)Nc2cccc(C)c2C)cc1 |  | inactive: -3.81%
12 | COc1cc(OC)cc(-c2sc3ccc(OC)cc3c2C#CCO)c1 |  | inactive: -14.3%
13 | CCN1C(=NCCc2ccc(Br)cc2)N[C@@H](c2ccccc2)[C@H](C(=O)OC)[C@H]1C | inconclusive: 28.2 µM [inhibitor, partial curve, poor fit] | 
14 | COc1cccc(CN(Cc2ccco2)C(c2ccc(F)cc2)c2nnnn2C(C)(C)C)c1 (stereo not given) | inconclusive: 35.5 µM [inhibitor, single point] | 
15 | O=C(C1CCN(c2nc(-c3ccccc3)nc3c2CCC3)CC1)N1CCCC1 | inconclusive: 22.4 µM [inhibitor, single point] | 
16 | CCCn1ncc(C(=O)N(C)C2CCCN(Cc3ccccc3F)C2)c1C (stereo not given) |  | inactive: -0.308%
17 | COc1ccccc1NS(=O)(=O)c1cc(C(=O)NC2CCN(Cc3ccccc3)CC2)ccc1C | inconclusive: 8.91 µM [inhibitor, partial curve, poor fit] | 
18 | C=CC[C@@H](CC(=O)N(CCO)Cc1ccccc1)C(=O)NC[C@@H](OC(=O)[C@@H](CC=C)CC(=O)OC(C)(C)C)c1ccccc1 | inconclusive: 31.6 µM [inhibitor, single point] | 
19 | CC1CC(C)CN(C(C(=O)NC2CCCCC2)c2cc3ccccc3o2)C1 (stereo not given) |  | inactive: -32.4%
20 | COc1ccc(OC)c(NC(=O)CCn2c(=S)[nH]c3ccccc3c2=O)c1 |  | inactive: -7.56%
21 | COc1cc(/C=C2\CCC/C(=C\c3ccc(O)c(OC)c3)C2=O)ccc1O | inconclusive: 39.8 µM [inhibitor, single point] | 
22 | N#CC(C#N)=C(Nc1ccc(F)cc1)SCc1cccc(F)c1 | inconclusive: 22.4 µM [inhibitor, partial curve] | 

Row | SMILES | Potency | activity change, negative = inhibition
23 | O=C(CCl)N1CCCC1c1ccc2c(c1)OCCO2 (stereo not given) | inconclusive: 39.8 µM [inhibitor, single point] | 
24 | COc1cccc(N2C(=O)CSC23C(=O)N(Cc2ccccc2)c2ccccc23)c1 (stereo not given) |  | inactive: -19.5%
25 | Cc1cccc(NC(=O)c2sc3nc(-c4ccc(F)cc4)cn3c2C)n1 | inconclusive: 31.6 µM [inhibitor, single point] | 
26 | O=C(CSCC(=O)N1CCCCC1)Nc1nc(-c2ccccc2)c(-c2ccccc2)s1 | inconclusive: 28.2 µM [inhibitor, single point] | 
27 | CN1C(=O)c2ccccc2Sc2ccc(NC(=O)COc3ccccc3)cc21 | inconclusive: 11.2 µM [inhibitor, partial curve] | 
28 | O=C1C=C(c2ccc(Cl)cc2)OC2(CCCC2)O1 |  | inactive: 4.24%
29 | CC(C)OC(=O)C(=O)NNc1ccccc1 | inconclusive: 8.91 µM [inhibitor, partial curve, poor fit] | 
30 | O=C(NC(c1ccc(Cl)cc1)c1ccsc1)C1CCN(CCOc2ccc(Cl)cc2)CC1 (stereo not given) | inconclusive: 28.2 µM [inhibitor, single point] | 
31 | Cc1cc2ccccn2c1C(=O)c1ccc(S(=O)(=O)N(C)C)cc1 |  | inactive: -20% [at 11.3 µM]
32 | Cc1cc(C)c(NC(=O)CSc2nc(COc3ccccc3)nc3ccccc23)c(C)c1 |  | inactive: -27.1%
33 | CCc1ccc(NC(=O)C(=O)NCC(c2ccc3c(c2)OCO3)N2CCOCC2)cc1 (stereo not given) |  | inactive: 0.0643%
34 | C=CCOc1ccc2ccccc2c1CNCCCN1CCOCC1 |  | inactive: -4.3%
35 | O=C(NCc1cccc(Cl)c1)c1cnn2c1NC(c1ccco1)CC2C(F)(F)F (stereo not given) |  | inactive: -10.9%
36 | N#Cc1ccc(N=c2ssnc2Cl)cc1 | inconclusive: 39.8 µM [inhibitor, partial curve, poor fit] | 
37 | COc1ccc(-c2nc(-c3ccccn3)no2)cc1 | inconclusive: 1.58 µM [inhibitor, full curve, poor fit] | 
38 | Cc1ccc(-c2nc(CSCC(=O)NCCN3CCN(Cc4ccccc4)CC3)c(C)o2)cc1 | inconclusive: 14.1 µM [inhibitor, partial curve, poor fit] | 
39 | O=C(NC(c1ccc(F)cc1)c1ccc2ccccc2n1)C1CCN(CCOc2ccc(Cl)cc2)CC1 (stereo not given) | inconclusive: 35.5 µM [inhibitor, single point] | 
40 | CCC1=C(OC(=O)N(CC)CC)N2C(=O)OC(=NCCc3c[nH]c4ccccc34)[C@]2(Cc2ccccc2)[C@H]2C1=CC[C@H]1C(=O)NC(=O)[C@H]12 | inconclusive: 25.1 µM [inhibitor, single point] | 
41 | O=C1CC(N2CCN(C/C=C/c3ccccc3)CC2)C(=O)N1CCc1ccccc1 (stereo not given) | inconclusive: 10 µM [inhibitor, partial curve, poor fit] | 
42 | Cc1cc(C)c[n+](-c2[nH]c(=O)sc2/C=N/N=C(\[O-])c2cccnc2)c1 | inconclusive: 3.55 µM [inhibitor, single point] | 
43 | COc1ccc(NC(=O)N(C)C[C@H]2Oc3c(NC(=O)Nc4ccc(C(F)(F)F)cc4)cccc3C(=O)N([C@H](C)CO)C[C@@H]2C)cc1 | inconclusive: 35.5 µM [inhibitor, single point] | 
44 | Cn1nnnc1Sc1ncnc2scc(-c3ccccc3Cl)c12 | active: 20 µM | 

Row | SMILES | Potency | activity change, negative = inhibition
45 | O=C(N/N=C/c1ccc(O)cc1O)/C(=C/c1ccccc1)CCO | active: 10 µM | 
46 | Cc1ccc2cc3cc(C(=O)NCCCN4CCCC4)oc3nc2c1 |  | inactive: -14.7%
47 | Cc1cc(S(=O)(=O)NCc2ccco2)c(C)cc1Cl |  | inactive: -4.37%
48 | Cc1cc(NC(=S)NC(=O)C2CC2)ccc1Br |  | inactive: 70.9%
49 | CCOc1cc(/C=C/c2nc3cc(C)c(C)cc3s2)ccc1OCC(=O)N1CCOCC1 |  | inactive: 0.237%
50 | CCc1nc(-c2cccc(C)c2)c(-c2ccnc(NC(=O)c3ccccc3)c2)s1 | inconclusive: 17.2 µM [inhibitor, partial curve] | 
51 | COc1ccc(C(=O)Nc2nc3c(s2)CCc2cc(OC)ccc2-3)cc1 | inconclusive: 31.6 µM [inhibitor, single point] | 
52 | COc1cc(/C=C/C(=O)N2CCC=CC2=O)cc(OC)c1OC | active: 10 µM | 
53 | COc1ccc(-c2cnnc(N/N=C/c3ccc(-c4ccc([N+](=O)[O-])cc4)o3)n2)cc1 | inconclusive: 0.0532 µM [inhibitor, full curve, poor fit] | 
54 | CN(C)c1ccc2nc3ccc(=[N+](C)C)cc-3sc2c1 | inconclusive: 8.63 µM [inhibitor, full curve] and active: 10 µM and active: 7.94 µM | 
55 | Cc1n[nH]c(C)c1S(=O)(=O)N1CCCC(C(=O)Nc2ccc(Cl)cc2)C1 (stereo not given) | inconclusive: 20 µM [inhibitor, partial curve, poor fit] | 
56 | COc1ccc(/C=C2\SC(=O)N(CCNC(=O)Cn3[nH]c(=O)c4ccccc4c3=O)C2=O)cc1 | inconclusive: 15.8 µM [inhibitor, partial curve, poor fit] | 
57 | C[C@@H](CN(C)C)CN1c2ccccc2Sc2ccccc21 | inconclusive: 35.5 µM [inhibitor, partial curve, poor fit] | 
58 | CC[C@H](C)[C@@H](CN[C@H](C)CNC)NCCC(c1ccccc1)c1ccccc1 | inconclusive: 35.5 µM [inhibitor, single point] | 
59 | CC(C)(C)n1cnc2cc(NCc3ccccc3Cl)ccc21 |  | inactive: 0.262%
60 | COc1ccc2nc(NC(=O)C3CCN(S(=O)(=O)c4cccs4)CC3)sc2c1 | inconclusive: 17.8 µM [inhibitor, partial curve, poor fit] | 
61 | CC1=NN(C(=O)c2ccc(Cn3cc([N+](=O)[O-])cn3)cc2)C(O)(C(F)(F)F)C1 (stereo not given) |  | inactive: -23.6%
62 | COc1ccc(/C(C)=N/NC(=O)CNC(=O)CCc2ccccc2)c(OC)c1 |  | inactive: -6.35%
63 | CCOCCCNC(=S)N1CCCN(c2nc3c(C)c(C)ccc3cc2C#N)CC1 | inconclusive: 17.8 µM [inhibitor, single point] | 
64 | O=C(O)CCC(=O)Nc1ccc(NC(=O)c2ccc(Cl)cc2Cl)c(Cl)c1 |  | inactive: 18.1%
65 | CCCC(=O)NC(c1ccco1)c1cc(Cl)c2cccnc2c1O (stereo not given) | active: 25.1 µM | 
